Sequences with one replicate were seen in a single cluster, so their values are uncertain.
The sequences below were run on ATP (assay: switch fluorescence ratio, 500 uM ATP over buffer (Cy3 cluster intensity, sum of 5 cycles each) (fold (ratio)); higher = stronger signal-on switching upon ATP binding; sequences stand for … in TCGTCGGCAGCGTCAGATGTGTATAAGAGACAGTTTTTTTTTTTTTTTTTTTTTTTTT…TC). Settings: aptamer strand: ATP DNA aptamer (quencher-CACCTGGGGGAGTATTGCGGAGGAAGG + anchor), 100 nM annealed; ATP concentration: 500 uM; one replicate.
How it was run: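 The quencher-labelled ATP aptamer, at 100 nM, was annealed to Cy3-labelled switching-strand clusters on a modified Illumina MiSeq flow-cell. The clusters were imaged in selection buffer, then after 15 min with 500 uM ATP at 22 °C, and this buffer/ATP cycle ran five times with NaOH stripping and re-annealing between runs. Per-cluster fluorescence ratios, summed target-cycle over summed buffer-cycle Cy3 intensity, were averaged per switch-domain sequence. Clusters outside 100-1000 RFU were excluded.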
CGGGTACCTG was tested, and the switch fluorescence ratio was 1.01.
Work on CGGGTAGGCC yielded a switch fluorescence ratio of 0.983.
CGGGTCGGG was tested, and the switch fluorescence ratio was 0.956.
Sequence CGGGTGCAGA has a switch fluorescence ratio of 1.03.
Sequence CGGGTGCGAA has a switch fluorescence ratio of 1.01.
CGGGTTCATG gave a switch fluorescence ratio of 1.01.
Work on CGGGTTGCGT yielded a switch fluorescence ratio of 0.981.
In the case of CGGGTTTA, the switch fluorescence ratio is reported as 0.985.
Work on CGGGTTTGGC yielded a switch fluorescence ratio of 0.958.
Work on CGGTAAAACC yielded a switch fluorescence ratio of 1.04.
Work on CGGTAAGTAT yielded a switch fluorescence ratio of 0.983.
For CGGTACATGA, the switch fluorescence ratio was 0.965.
Sequence CGGTACTTAG has a switch fluorescence ratio of 1.07.
With CGGTAGAC the switch fluorescence ratio was 1.11.
With CGGTAGCACT the switch fluorescence ratio was 1.23.
With CGGTAGGATA the switch fluorescence ratio was 0.98.
For CGGTAGGTTG, the switch fluorescence ratio was 1.07.
CGGTAGTAAA showed a switch fluorescence ratio of 1.03.
For CGGTAGTGTC, the switch fluorescence ratio was 1.04.
CGGTCAAGTC gave a switch fluorescence ratio of 1.
In the case of CGGTCACGGA, the switch fluorescence ratio is reported as 0.977.
Work on CGGTCAGATT yielded a switch fluorescence ratio of 0.997.
For CGGTCAGTTA, the switch fluorescence ratio was 1.03.
For CGGTCATCGG, the switch fluorescence ratio was 0.976.
CGGTCCAGCT gave a switch fluorescence ratio of 0.967.
CGGTCCTGTT was tested, and the switch fluorescence ratio was 1.
CGGTCGGACC showed a switch fluorescence ratio of 1.
With CGGTCTCCAA the switch fluorescence ratio was 0.985.
CGGTCTTGTG showed a switch fluorescence ratio of 0.945.
Work on CGGTGACATT yielded a switch fluorescence ratio of 1.05.
CGGTGAGCAG showed a switch fluorescence ratio of 0.954.
CGGTGAGCTT gave a switch fluorescence ratio of 1.01.
CGGTGCCGTC showed a switch fluorescence ratio of 0.978.
With CGGTGCGACA the switch fluorescence ratio was 1.01.
CGGTGCTAAC showed a switch fluorescence ratio of 1.1.
For CGGTGGGCTG, the switch fluorescence ratio was 0.969.
Work on CGGTGTCTGC yielded a switch fluorescence ratio of 1.07.
In the case of CGGTGTGATC, the switch fluorescence ratio is reported as 1.04.
CGGTGTTGG showed a switch fluorescence ratio of 1.01.
CGGTTAAAGT gave a switch fluorescence ratio of 1.01.
Sequence CGGTTCTTTC has a switch fluorescence ratio of 1.03.
For CGGTTGAAAG, the switch fluorescence ratio was 0.966.
For CGGTTTAACA, the switch fluorescence ratio was 1.02.
For CGGTTTATCT, the switch fluorescence ratio was 1.02.
In the case of CGGTTTCTCA, the switch fluorescence ratio is reported as 0.992.
Sequence CGGTTTGGT has a switch fluorescence ratio of 0.942.
CGGTTTGTGG gave a switch fluorescence ratio of 1.
CGTAACCTG was tested, and the switch fluorescence ratio was 1.03.
Sequence CGTAAGATCC has a switch fluorescence ratio of 1.08.
Sequence CGTAAGGCGC has a switch fluorescence ratio of 1.03.
In the case of CGTAATCAGC, the switch fluorescence ratio is reported as 1.1.
CGTACACGGA showed a switch fluorescence ratio of 1.02.
CGTACACGTC showed a switch fluorescence ratio of 0.97.
Sequence CGTACCGCTC has a switch fluorescence ratio of 1.3.
Work on CGTACGATTA yielded a switch fluorescence ratio of 1.05.
Work on CGTACTAAGC yielded a switch fluorescence ratio of 1.09.
Sequence CGTACTACAT has a switch fluorescence ratio of 1.07.
Work on CGTACTAGCA yielded a switch fluorescence ratio of 1.06.
CGTACTCTA was tested, and the switch fluorescence ratio was 1.11.
CGTACTTTAC showed a switch fluorescence ratio of 1.37.
With CGTAGAGATG the switch fluorescence ratio was 1.03.
With CGTAGATATG the switch fluorescence ratio was 0.998.
Sequence CGTAGCAACT has a switch fluorescence ratio of 2.68.
With CGTAGCGGAA the switch fluorescence ratio was 1.37.
Sequence CGTAGCTTCT has a switch fluorescence ratio of 1.11.
CGTAGGCCTT showed a switch fluorescence ratio of 1.02.
For CGTAGGTGGA, the switch fluorescence ratio was 0.999.
For CGTAGTAAGG, the switch fluorescence ratio was 1.14.
For CGTAGTCCTC, the switch fluorescence ratio was 1.03.
Sequence CGTAGTGGAG has a switch fluorescence ratio of 1.04.
In the case of CGTAGTTCCT, the switch fluorescence ratio is reported as 0.954.
For CGTATACCGA, the switch fluorescence ratio was 1.04.
In the case of CGTATATATT, the switch fluorescence ratio is reported as 0.96.
For CGTATCACAT, the switch fluorescence ratio was 1.01.
With CGTATCCCCA the switch fluorescence ratio was 1.02.
For CGTATTGCAT, the switch fluorescence ratio was 0.99.
In the case of CGTATTGGTA, the switch fluorescence ratio is reported as 0.982.
Sequence CGTCAAAGGG has a switch fluorescence ratio of 1.01.
Sequence CGTCAACGGA has a switch fluorescence ratio of 1.01.
CGTCAAGAGT showed a switch fluorescence ratio of 1.02.
CGTCAGTACT gave a switch fluorescence ratio of 1.55.
CGTCAGTTGT was tested, and the switch fluorescence ratio was 0.977.
CGTCATATCG was tested, and the switch fluorescence ratio was 0.983.
CGTCATCGAG gave a switch fluorescence ratio of 1.03.
In the case of CGTCATCTTA, the switch fluorescence ratio is reported as 0.922.
CGTCCAGGC showed a switch fluorescence ratio of 1.16.
Sequence CGTCCTAAC has a switch fluorescence ratio of 1.19.
Work on CGTCCTAACT yielded a switch fluorescence ratio of 0.996.
Work on CGTCGACGCA yielded a switch fluorescence ratio of 1.04.
With CGTCGCTAGT the switch fluorescence ratio was 1.03.
CGTCGCTGAA showed a switch fluorescence ratio of 0.97.
For CGTCGGACCT, the switch fluorescence ratio was 0.989.
Sequence CGTCGGATAC has a switch fluorescence ratio of 3.89.
Work on CGTCGGGATG yielded a switch fluorescence ratio of 0.99.
In the case of CGTCGGTGGC, the switch fluorescence ratio is reported as 0.97.
With CGTCGGTGTG the switch fluorescence ratio was 0.993.
CGTCGGTTTC gave a switch fluorescence ratio of 1.
Sequence CGTCGTTGCT has a switch fluorescence ratio of 1.
With CGTCGTTTTG the switch fluorescence ratio was 0.962.
CGTCTAGAGT gave a switch fluorescence ratio of 0.957.
With CGTCTAGTCT the switch fluorescence ratio was 1.09.
For CGTCTCAGAG, the switch fluorescence ratio was 1.05.
With CGTCTCTTTA the switch fluorescence ratio was 0.99.
With CGTCTGTGTC the switch fluorescence ratio was 0.998.
Work on CGTCTGTTGC yielded a switch fluorescence ratio of 1.1.
For CGTCTTCACA, the switch fluorescence ratio was 0.983.
In the case of CGTGAAATCA, the switch fluorescence ratio is reported as 0.998.
With CGTGAAGTGG the switch fluorescence ratio was 0.966.
In the case of CGTGAAGTTT, the switch fluorescence ratio is reported as 0.959.
With CGTGACAGCC the switch fluorescence ratio was 1.06.
CGTGATAGAC was tested, and the switch fluorescence ratio was 1.12.
CGTGATAGTA was tested, and the switch fluorescence ratio was 0.938.
In the case of CGTGATGTAA, the switch fluorescence ratio is reported as 1.01.
CGTGCACTTT showed a switch fluorescence ratio of 0.961.
Sequence CGTGCCAACT has a switch fluorescence ratio of 1.01.
CGTGCCTTGT showed a switch fluorescence ratio of 0.994.
CGTGCGGCCT showed a switch fluorescence ratio of 1.03.
With CGTGCGGGCT the switch fluorescence ratio was 1.11.
Sequence CGTGCTCATG has a switch fluorescence ratio of 0.998.
CGTGCTGCGG showed a switch fluorescence ratio of 0.955.
With CGTGGACGAG the switch fluorescence ratio was 1.04.
In the case of CGTGGAGGTC, the switch fluorescence ratio is reported as 1.02.
In the case of CGTGGATGAT, the switch fluorescence ratio is reported as 0.931.
CGTGGCATTA showed a switch fluorescence ratio of 1.11.
CGTGGCGAA gave a switch fluorescence ratio of 0.957.
In the case of CGTGGGGACA, the switch fluorescence ratio is reported as 1.02.
CGTGGGGCCA showed a switch fluorescence ratio of 0.947.
CGTGGTCGTA was tested, and the switch fluorescence ratio was 1.03.
Sequence CGTGGTCT has a switch fluorescence ratio of 0.987.
With CGTGGTGCCA the switch fluorescence ratio was 0.954.
For CGTGTACGC, the switch fluorescence ratio was 1.01.
For CGTGTACGGT, the switch fluorescence ratio was 0.963.
CGTGTATTAA showed a switch fluorescence ratio of 1.04.
CGTGTCCCTC was tested, and the switch fluorescence ratio was 1.01.
For CGTGTCCGCG, the switch fluorescence ratio was 0.997.
CGTGTCCTGT was tested, and the switch fluorescence ratio was 1.
CGTGTCTTCA showed a switch fluorescence ratio of 1.03.
In the case of CGTGTGAGCC, the switch fluorescence ratio is reported as 0.97.
CGTGTTCCGC was tested, and the switch fluorescence ratio was 0.976.
Work on CGTTAAAACA yielded a switch fluorescence ratio of 1.1.
CGTTACCCAT gave a switch fluorescence ratio of 1.04.
Work on CGTTACGGTC yielded a switch fluorescence ratio of 0.935.
In the case of CGTTAGAAAA, the switch fluorescence ratio is reported as 1.02.
Work on CGTTAGTGGG yielded a switch fluorescence ratio of 1.
CGTTATCAGG was tested, and the switch fluorescence ratio was 1.04.
For CGTTATTATC, the switch fluorescence ratio was 1.13.
CGTTCATCAA gave a switch fluorescence ratio of 1.
CGTTCCCAGC gave a switch fluorescence ratio of 1.3.
CGTTCCCTGT gave a switch fluorescence ratio of 0.986.
CGTTCGAGGA showed a switch fluorescence ratio of 1.01.
Sequence CGTTCGCGGA has a switch fluorescence ratio of 1.11.
CGTTCGTGG gave a switch fluorescence ratio of 1.02.
Work on CGTTCGTTGG yielded a switch fluorescence ratio of 0.993.
CGTTCTAATC was tested, and the switch fluorescence ratio was 1.02.
With CGTTCTGTCT the switch fluorescence ratio was 0.988.
Sequence CGTTGAATG has a switch fluorescence ratio of 0.999.
CGTTGACAG gave a switch fluorescence ratio of 0.991.
CGTTGAGGGG gave a switch fluorescence ratio of 0.909.
For CGTTGAGTTC, the switch fluorescence ratio was 1.01.
CGTTGATTCA showed a switch fluorescence ratio of 0.977.
CGTTGCAACT was tested, and the switch fluorescence ratio was 0.957.
In the case of CGTTGCGCCT, the switch fluorescence ratio is reported as 1.04.
Work on CGTTGGGGTA yielded a switch fluorescence ratio of 1.01.
CGTTGGTAGC was tested, and the switch fluorescence ratio was 0.955.
Sequence CGTTGTAGGC has a switch fluorescence ratio of 1.15.
For CGTTGTAGTT, the switch fluorescence ratio was 0.974.
Sequence CGTTGTATCG has a switch fluorescence ratio of 0.99.
For CGTTTATTTC, the switch fluorescence ratio was 0.996.
With CGTTTCAGAA the switch fluorescence ratio was 1.02.
Sequence CGTTTCTTCG has a switch fluorescence ratio of 0.975.
With CGTTTGTGCC the switch fluorescence ratio was 1.03.
With CGTTTTGTTT the switch fluorescence ratio was 0.985.
For CTAAAATGAT, the switch fluorescence ratio was 1.01.
With CTAAAGAGT the switch fluorescence ratio was 1.01.
CTAAAGGAGA gave a switch fluorescence ratio of 1.02.
CTAAATGTTA showed a switch fluorescence ratio of 0.985.
Sequence CTAAATTGA has a switch fluorescence ratio of 0.966.
Work on CTAAATTGCT yielded a switch fluorescence ratio of 0.986.
In the case of CTAACAGGAT, the switch fluorescence ratio is reported as 0.997.
CTAACATGG gave a switch fluorescence ratio of 0.99.
In the case of CTAACGAACT, the switch fluorescence ratio is reported as 1.32.
For CTAACGCCGC, the switch fluorescence ratio was 1.95.
In the case of CTAACTCAG, the switch fluorescence ratio is reported as 1.04.
CTAAGAGCG showed a switch fluorescence ratio of 0.986.
With CTAAGATTTT the switch fluorescence ratio was 0.982.
CTAAGCTAGA showed a switch fluorescence ratio of 1.03.
CTAAGTAAAC showed a switch fluorescence ratio of 1.08.
With CTAATACAAA the switch fluorescence ratio was 1.03.
In the case of CTAATATTAC, the switch fluorescence ratio is reported as 1.06.
In the case of CTAATCCGAG, the switch fluorescence ratio is reported as 1.07.
With CTAATCCTGT the switch fluorescence ratio was 1.03.
In the case of CTAATCGCG, the switch fluorescence ratio is reported as 0.993.
In the case of CTAATGGTCA, the switch fluorescence ratio is reported as 0.959.
Work on CTAATGTATT yielded a switch fluorescence ratio of 0.973.
Work on CTACACGCGG yielded a switch fluorescence ratio of 1.05.
Work on CTACCAAATC yielded a switch fluorescence ratio of 1.36.
CTACCCGTCG was tested, and the switch fluorescence ratio was 0.989.
CTACCCTGCG showed a switch fluorescence ratio of 1.03.
CTACCGTCTG showed a switch fluorescence ratio of 1.01.
Work on CTACCTCGAT yielded a switch fluorescence ratio of 1.02.
In the case of CTACGACGTC, the switch fluorescence ratio is reported as 1.06.

— the supplement of paper PMC10126150
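Further: ATP exposure 15 min at 22 °C before imaging.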
